Test results as given in PubChem BioAssay AID504832 (National Center for Advancing Translational Sciences (NCATS), 2011).
Hit rate of the full screen: of about 310,000 compounds, about 18,000 (5.8%) were called active. This list was built around the results that the source calls inconclusive (neither active nor inactive); the mix of calls is not that of the screen. Calls follow the shape of the dose curve; as a rule, active = well fitted inhibition curve with a large enough effect; inconclusive = small, poorly fitted or top-dose-only effect, or another doubt; inactive = no such curve, though single readings can be large or run the other way. No potency is given beside an inconclusive call; the fits are too rough.

test: Primary qHTS for delayed death inhibitors of the malarial parasite plastid, 48 hour incubation; settings: P. falciparum luciferase growth in erythrocytes; series mostly up to 28.7 µM; activity change, negative = inhibition: at the top concentration
In short: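 Luciferase-expressing P. falciparum in infected erythrocytes (2% hematocrit, 0.1% parasitemia final) in RPMI 1640/0.5% Albumax were exposed to compound for 48 hours at 37 C, 5% CO2; growth read as luminescence.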
% is scaled to controls: 0 for no effect and ±100 for the full control effect; potency is read from the fitted curve at half-maximal effect; tags tell the direction and shape of the fitted curve.

**Q.** Which Potency does the source give for CCOc1ccccc1CNC(=O)Cn1ccc2cc(S(=O)(=O)N3CCC(C)CC3)ccc21 here?
**A.** The Potency was inconclusive [inhibitor, single point].

**Q.** Which Potency does the source give for CC(OC(=O)C1CCN(S(=O)(=O)c2ccc(F)cc2)CC1)C(=O)NC1CCCCC1C (stereo not given) here?
**A.** The Potency was inconclusive [inhibitor, single point].

**Q.** Which Potency does the source give for CC1(C)CC(=O)C=C(NCCN2CCN(C(=S)Nc3ccc(F)cc3)CC2)C1 here?
**A.** Its Potency is inconclusive [inhibitor, single point].

**Q.** For COc1ccc(-c2ccccc2NC(=O)C2CCCN(Cc3ccc(C)o3)C2)cc1 (stereo not given), which Potency is on record?
**A.** The Potency was inconclusive [inhibitor, partial curve].

**Q.** For CCOC(=O)c1c(-c2ccccc2)oc2ccc(OCC(O)CN(C)C)cc12 (stereo not given), which Potency is on record?
**A.** The Potency was inconclusive [inhibitor, partial curve].

**Q.** Which Potency does the source give for COc1cc(/C=C(\C#N)C(=O)NCC2CCCO2)ccc1OCCC(C)C (stereo not given) here?
**A.** Its Potency is inconclusive [inhibitor, single point].

**Q.** Which Potency does the source give for CCOC(=O)c1cc2c(ccn2C)n1CC(=O)N1CCN(c2ccc(F)cc2)CC1 here?
**A.** The Potency was inconclusive [inhibitor, full curve, poor fit].

**Q.** With Clc1cccc2c1Sc1ccccc1CC2N1CCNCC1 (stereo not given) as the compound, how does the Potency read?
**A.** The Potency was inconclusive [inhibitor, single point].

**Q.** For C=CCC1(O)C(=O)N2C(=C1C(=O)OCC)c1ccc3ccccc3c1CC2(C)C (stereo not given), which Potency is on record?
**A.** Its Potency is inconclusive [inhibitor, partial curve, poor fit].

**Q.** Which Potency does the source give for COc1ccc(CCNC(=O)c2ccc3c(c2)N(Cc2ccc(C)cc2)CCS3)cc1OC here?
**A.** The Potency was active: 10.4 µM.

**Q.** Which Potency does the source give for COc1ccc(OC)c(Nc2nc(NCc3ccco3)nc(N)c2[N+](=O)[O-])c1 here?
**A.** Its Potency is inconclusive [inhibitor, partial curve].

**Q.** For COc1cc(/C=C2/CC/C(=C/c3ccc(O)c(OC)c3)C2=O)ccc1O, which Potency is on record?
**A.** The Potency was active: 3.29 µM.

**Q.** With CCc1cccc(N(C)C(N)=Nc2cccc3ccccc23)c1 as the compound, how does the Potency read?
**A.** Its Potency is active: 13.5 µM.

**Q.** Which activity change, negative = inhibition does the source give for CC(C)Sc1cc(Cl)nc(NC(=O)Nc2ccccc2)n1 here?
**A.** Its activity change, negative = inhibition is inactive: 1.7% [at 0.00184 µM].

**Q.** Which Potency does the source give for COc1cccc(CNC(=O)CCC2CCCN(C/C=C/c3ccccc3OC)C2)c1 (stereo not given) here?
**A.** The Potency was inconclusive [inhibitor, single point].

**Q.** For COc1cc(CCC(=O)N2CCN(S(=O)(=O)c3ccc(C)cc3)CC2)cc(OC)c1OC, which Potency is on record?
**A.** The Potency was active: 5.22 µM.

**Q.** With Cc1nn2c(-c3ccc(Cl)cc3Cl)nnc2s1 as the compound, how does the “activity change, negative = inhibition” value read?
**A.** Its value is inactive: 24.7%.

**Q.** With CN(C(=O)CSc1nc(O)cc(=O)n1C1CCCC1)c1ccccc1 as the compound, how does the Potency read?
**A.** Its Potency is inconclusive [inhibitor, partial curve, poor fit].

**Q.** Which Potency does the source give for O=C(c1cccc2ccccc12)N1CCN(c2ccc([N+](=O)[O-])c(NCc3ccco3)c2)CC1 here?
**A.** Its Potency is inconclusive [inhibitor, full curve].

**Q.** With COc1cc(C(=O)NCCOC(=O)c2cccc(N(C)C)c2)cc(OC)c1OC as the compound, how does the Potency read?
**A.** Its Potency is inconclusive [inhibitor, partial curve, poor fit].

**Q.** For CCN1C(=O)[C@H]2[C@@H](c3ccc(-c4cccc(Cl)c4)cc3)N3CCCC[C@@]3(C(=O)OC)[C@H]2C1=O, which Potency is on record?
**A.** Its Potency is inconclusive [inhibitor, single point].

**Q.** With O=C(NCC(c1ccco1)N1CCOCC1)c1c(F)cccc1F (stereo not given) as the compound, how does the “activity change, negative = inhibition” value read?
**A.** The value was inactive: 4.7%.

**Q.** Which Potency does the source give for Cc1c(CNCCc2ccccc2Cl)c(C(=O)O)c(C)n1-c1ccccc1 here?
**A.** The Potency was inconclusive [inhibitor, partial curve, poor fit].

**Q.** With CCOc1cc(/C=C2\SC(N3CCCCC3)=NC2=O)ccc1O as the compound, how does the Potency read?
**A.** Its Potency is inconclusive [inhibitor, single point].

**Q.** For COc1ccccc1C(=O)Nc1ccc(-c2nnn(CC(=O)NCc3ccco3)n2)cc1, which Potency is on record?
**A.** The Potency was inconclusive [inhibitor, partial curve, poor fit].

**Q.** With CC(=O)NS(=O)(=O)c1ccc(N)cc1 as the compound, how does the Potency read?
**A.** The Potency was “inactive”.

**Q.** With Cc1ccc(OCC(=O)NC(=S)Nc2ccc(Br)c(C)n2)cc1 as the compound, how does the Potency read?
**A.** The Potency was inconclusive [inhibitor, single point].

**Q.** For COC(=O)c1ccc(CN2CCC(CO)(Cc3ccc(OC)cc3)CC2)cc1, which Potency is on record?
**A.** Its Potency is inconclusive [inhibitor, partial curve, poor fit].

**Q.** Which Potency does the source give for COc1ccc(-c2nc3c4ccccc4ccn3c2CN2CCCCC2)cc1OC here?
**A.** Its Potency is inconclusive [inhibitor, partial curve].

**Q.** For CCOc1ccccc1C(=O)N1CCN(c2cccc(Cl)c2)CC1, which Potency is on record?
**A.** Its Potency is inconclusive [inhibitor, single point].

**Q.** For CC1(C)CC(NC(=O)COc2cc3oc(=O)c4c(c3cc2Cl)CCC4)CC(C)(C)N1, which Potency is on record?
**A.** Its Potency is inconclusive [inhibitor, single point].

**Q.** For C=CCn1c(SCC(=O)NCC)nnc1-c1cc2c(s1)CCC(CC)C2 (stereo not given), which “activity change, negative = inhibition” value is on record?
**A.** Its value is inactive: 28.7%.

**Q.** For C#CCOCCOCCOCCNc1nc(N2CCN(C(=O)CCCCCCCCCCNC(=O)[C@@H]([C@H](C)O)n3cc(C)nn3)CC2)nc(N2CCN(C(=O)CCCCCCCCCCNC(=O)[C@@H]([C@H](C)O)n3cc(C)nn3)CC2)n1, which Potency is on record?
**A.** Its Potency is active: 0.104 µM.

**Q.** With CC/C(=N\NC(=S)Nc1ccc(OC)cc1)c1ccc(OC(F)F)cc1 as the compound, how does the Potency read?
**A.** The Potency was inconclusive [inhibitor, partial curve].

**Q.** Which Potency does the source give for COc1ccc(NC(=O)c2cc(-c3ccccc3)nc3c2cnn3C(C)C)cc1 here?
**A.** The Potency was inconclusive [inhibitor, single point].

**Q.** With COc1ccc(CN2C(=O)CC(Cc3cc(C)cc(C)c3)C2=O)cc1OC (stereo not given) as the compound, how does the Potency read?
**A.** The Potency was inconclusive [inhibitor, single point].

**Q.** With COc1ccc(C(=O)N2CCOC2CNC(=O)C(=O)NCc2ccccc2Cl)cc1 (stereo not given) as the compound, how does the Potency read?
**A.** The Potency was inconclusive [inhibitor, partial curve, poor fit].

**Q.** With Cc1cccc(NC(=O)CSCC(=O)N(C)Cc2ccc(Cl)c(Cl)c2)c1 as the compound, how does the Potency read?
**A.** Its Potency is inconclusive [inhibitor, partial curve, poor fit].

**Q.** For COc1cccc(NC(=O)CCC(=O)Nc2cccc(OC)c2)c1, which “activity change, negative = inhibition” value is on record?
**A.** Its value is inactive: 13%.

**Q.** For Cc1cccc2sc(NNC(=O)C3=COCCO3)nc12, which “activity change, negative = inhibition” value is on record?
**A.** Its value is inactive: 57.4%.

**Q.** With CC(=O)N(C)c1ccc(N=Nc2c(C)[nH]n(-c3ccccc3)c2=O)cc1 as the compound, how does the Potency read?
**A.** The Potency was inconclusive [inhibitor, single point].

**Q.** Which Potency does the source give for Cc1cc(C)cc(NC(=S)NCCSc2ccc(Cl)cc2)c1 here?
**A.** Its Potency is inconclusive [inhibitor, single point].

**Q.** With O=C(Nc1cccc(Cl)c1)Nc1nccs1 as the compound, how does the Potency read?
**A.** The Potency was “inactive”.

**Q.** With COc1ccc(CC(=O)Nc2cc(S(=O)(=O)N3CCOCC3)ccc2N2CCOCC2)cc1 as the compound, how does the Potency read?
**A.** Its Potency is inconclusive [inhibitor, partial curve].

**Q.** For Oc1cc[c]([Hg][Cl])cc1, which Potency is on record?
**A.** The Potency was active: 1.9 µM.

**Q.** Which Potency does the source give for CCn1cc(C(=O)OCC(=O)Nc2c(C)cccc2C)c(=O)c2ccc(C)nc21 here?
**A.** The Potency was inconclusive [inhibitor, partial curve, poor fit].

**Q.** For CC1=CC(C)(C)Nc2ccc(OC(=O)CN3C(=O)CCC3=O)cc21, which Potency is on record?
**A.** The Potency was active: 10.4 µM.

**Q.** Which Potency does the source give for Cc1cc(C(C)(C)C)cc(C)c1CCNC(=O)c1c(C)noc1C here?
**A.** The Potency was active: 13.1 µM.

**Q.** Which Potency does the source give for C=CCOC(=O)C1=C(C)N(C)C(=O)NC1c1cc2c(cc1Br)OCO2 (stereo not given) here?
**A.** Its Potency is inconclusive [inhibitor, partial curve, poor fit].

**Q.** For Cc1ccccc1N(CC(=O)NCCSCc1ccco1)S(C)(=O)=O, which “activity change, negative = inhibition” value is on record?
**A.** Its value is inactive: -9.95%.

**Q.** For COc1cc(NC(=O)c2cc(S(=O)(=O)N3CCCCC3)ccc2N2CCOCC2)cc(OC)c1, which Potency is on record?
**A.** Its Potency is inconclusive [inhibitor, single point].

**Q.** For COc1cc(/C=C/C(=O)OCC(=O)NCC2CCCCC2)ccc1O, which Potency is on record?
**A.** Its Potency is inconclusive [inhibitor, single point].

**Q.** With CCN(CC)CCCNC(=O)c1c(O)c2ccccc2n(Cc2ccccc2)c1=O as the compound, how does the Potency read?
**A.** The Potency was active: 9.28 µM.

**Q.** With OCCN(CCO)CC(O)COCCC12CC3CC(CC(C3)C1)C2 (stereo not given) as the compound, how does the Potency read?
**A.** The Potency was inconclusive [inhibitor, single point].

**Q.** Which “activity change, negative = inhibition” value does the source give for Cc1ccc(N2C(=O)CC(N(O)C3CC(=O)N(c4ccc(C)cc4)C3=O)C2=O)cc1 (stereo not given) here?
**A.** Its value is inactive: 9.16%.

**Q.** For CCOC(=O)CSc1nc2cc3c(cc2cc1CC)OCCO3, which Potency is on record?
**A.** The Potency was inconclusive [inhibitor, single point].

**Q.** With O=C1/C(=C/c2ccco2)SC(=S)N1CCC(=O)N1CCCCC1CCO (stereo not given) as the compound, how does the Potency read?
**A.** The Potency was inconclusive [inhibitor, partial curve].

**Q.** With COc1ccccc1CN(Cc1nc2ccccc2c(=O)[nH]1)C(=O)Nc1ccc(C)cc1 as the compound, how does the Potency read?
**A.** Its Potency is inconclusive [inhibitor, single point].

**Q.** For CCN(C(=O)Cc1ccccc1OC)c1nnc(-c2ccncc2)s1, which Potency is on record?
**A.** The Potency was inconclusive [inhibitor, single point].

**Q.** Which Potency does the source give for O=C(c1cc2sccc2n1Cc1ccccc1)N1CCc2ccccc21 here?
**A.** The Potency was inconclusive [inhibitor, partial curve, poor fit].

**Q.** For O=C1CC(N2CCC(c3nc4ccccc4o3)CC2)C(=O)N1c1ccc(F)cc1 (stereo not given), which “activity change, negative = inhibition” value is on record?
**A.** The value was inactive: -13.7%.

**Q.** For CC(=O)c1ccc(NC(=O)CS(=O)(=O)c2cn(CC(=O)N3CCOCC3)c3ccccc23)cc1, which “activity change, negative = inhibition” value is on record?
**A.** The value was inactive: 26.7%.

**Q.** For CN(c1nc2ccccc2[nH]c1=O)C1CCCCC1, which Potency is on record?
**A.** The Potency was inconclusive [inhibitor, single point].

**Q.** For CCOc1cc(C2C3=C(CC(C)(C)CC3=O)N(C)C3=C2C(=O)CC(C)(C)C3)ccc1O, which Potency is on record?
**A.** Its Potency is inconclusive [inhibitor, partial curve, poor fit].

**Q.** With Cc1ccc(S(=O)(=O)N2CCN(C(=O)c3n[nH]c(=O)c4ccccc34)CC2)c(C)c1 as the compound, how does the Potency read?
**A.** Its Potency is inconclusive [inhibitor, single point].
